Laboratory results published in PubChem BioAssay AID1346428 (National Center for Advancing Translational Sciences (NCATS), 2018).
Among all 48,000 compounds or so, about 1,200 (2.5%) were called active. Another 2% or so got no clear call; they are omitted.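 The calls were made as follows: active = activation of at least 60% and not above a set upper limit (about 1 call in 100 departs from these limits); inconclusive = activation of 40% to 60%, or above that upper limit; inactive = activation under 40%.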 Some of the results follow.

Each compound was assayed against Probable G-protein coupled receptor 32 (Homo sapiens) (UniProt O75388) (assay: qHTS for Agonists of Human Resolvin D1 Receptor DRV1). Settings: CHO-K1 GPR32 beta-arrestin PathHunter luminescence, 90 min; at 76.9 µM; stronger effect = higher value; zero percent set by DMSO-only wells.
Outline: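 Luminescent readout of beta-Gal complementation quantifies ligand-induced beta-arrestin association with GPR32 in CHO-K1 cells; 90 min compound incubation at 37 °C, detection 1 h at room temperature.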
Also: 0% is about no effect.

UniProt O75388, sequence (O75388 whole entry, looked up): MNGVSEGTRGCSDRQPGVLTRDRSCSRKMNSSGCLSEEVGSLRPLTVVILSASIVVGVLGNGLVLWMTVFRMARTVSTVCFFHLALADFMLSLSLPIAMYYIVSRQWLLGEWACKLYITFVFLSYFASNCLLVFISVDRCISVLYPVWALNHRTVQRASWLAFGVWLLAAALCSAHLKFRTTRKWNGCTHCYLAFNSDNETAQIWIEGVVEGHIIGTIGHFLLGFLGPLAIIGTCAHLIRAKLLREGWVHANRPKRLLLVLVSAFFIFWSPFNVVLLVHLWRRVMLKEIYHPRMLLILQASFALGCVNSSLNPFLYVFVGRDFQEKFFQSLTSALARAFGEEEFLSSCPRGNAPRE

Structure (SMILES) | activation
Cc1ccc(CN(C(=O)COc2ccc(C(C)C)cc2)C2CCS(=O)(=O)C2)o1 (configuration not stated) | active: 61.2%
COc1ccc(CC(=O)N2CC(=O)Nc3ccc(Br)cc3C2c2ccc(F)cc2)cc1 (configuration not stated) | inactive: -21.1%
CCCn1c(=O)c2sccc2n2c(CCCC(=O)Nc3ccccc3OCC)nnc12 | inactive: 14%
COc1ccc(O)c(C2Nc3ccccc3-n3c(-c4ccccc4)c4c(=O)n(C)c(=O)n(C)c4c32)c1 (configuration not stated) | inactive: -2.65%
COc1cccc(CNC(=O)C(NS(=O)(=O)c2ccc3c(c2)oc(=O)n3C)C(C)C)c1 (configuration not stated) | inactive: 21.3%
Cc1cccc(NC(=O)CSc2nc(C3CCCC3)nc3c2c(=O)n(C)c(=O)n3C)c1C | inactive: 1.22%
Cc1nnsc1C(=O)Oc1ccc(C(C)C)cc1 | inactive: 6.15%
Cc1c(C(=O)OCC2CCCCC2)[nH]c2c1C(=O)CC(c1ccc(Cl)cc1)C2 (configuration not stated) | inactive: 0.958%
COc1ccc(S(=O)(=O)Nc2cccc(-c3ccc(N4CCCCCC4)nn3)c2)cc1 | inactive: 0.403%
COc1ccc2c(c1)-c1nc(NC(=O)c3ccccc3F)sc1CC2 | inactive: -24.5%
CCN(CC)C(=O)c1sc2c(c1C)c(=O)n(-c1ccc(C)c(C)c1)c(=O)n2Cc1cc(=O)n2c(C)cccc2n1 | inactive: -6.62%
COc1ccc(CNC(=O)CSc2ncc3c(n2)-c2cc(Cl)ccc2N(Cc2ccccc2)S3(=O)=O)cc1OC | inactive: -5.47%
Cc1nnc(SCc2nc(-c3ccc(Cl)cc3)no2)n1-c1ccc(F)cc1 | inactive: 6.98%
COc1ccccc1NC(=O)Cn1c(=O)n(CCc2ccccc2)c(=O)c2c3c(sc21)CN(C(C)=O)CC3 | inactive: -6.47%
Cc1ccc(Cn2cc(/C=C(/C#N)C(=O)Nc3cccc(Cl)c3)c3ccccc32)cc1 | inactive: -3.35%
O=C(c1ccccc1)n1nc(-c2ccco2)nc1NCc1cccs1 | inactive: 18.1%
COc1cc2ccccc2cc1C(=O)Nc1cc(-c2nc3ccccc3o2)ccc1C | inactive: 8.19%
CCC(=O)OCc1cnc(C)c2oc(=O)c(C(=O)Nc3ccccc3C(F)(F)F)cc12 | inactive: -12.1%
Cc1ccc(S(=O)(=O)N2CCc3cc(C(=O)Nc4ccc(C)c(C)c4)ccc32)cc1 | inactive: 6.41%
O=c1cc(-c2ccccc2)nc2cc(-c3ccc(F)cc3)[nH]n12 | inactive: -1.45%
CCOC(=O)Cn1c(=O)n(CC2CCCO2)c2nc(-c3ccccc3)nc(C(N)=O)c21 (configuration not stated) | inactive: -0.143%

Structure (SMILES) | activation
COc1ccc(C(=O)Nc2ccc(N(C)Cc3ccccc3)c(C(=O)O)c2)cc1 | inactive: -15.6%
O=C(Nc1ccc(C(=O)O)c(O)c1)c1ccccc1 | inactive: 3.65%
CC(C)NC(=O)N1[C@H](c2cccs2)[C@@H](C)C(=O)[C@@H](C)[C@@H]1c1cccs1 | inactive: -12.1%
O=C(CN1CCCN(Cc2ccccc2F)S1(=O)=O)Nc1ccc(F)c(Cl)c1 | inactive: 5.4%
Cc1cc(C)cc(NC(=O)N2CCC(CN3CCOCC3)CC2)c1 | inactive: -9.13%
CCOC(=O)C1=C(CN2CCN(c3ccccc3OC)CC2)NC(=O)NC1c1ccccc1 (configuration not stated) | inactive: 18.1%
COCc1cc(C)nc2c1C(=O)NC(c1ccc(F)cc1)N2Cc1ccccc1 (configuration not stated) | inactive: -31.8%
COc1ccc(-c2nnc(SCC(=O)NCCC(C)C)nc2-c2ccc(OC)c(OC)c2)cc1OC | inactive: -15.3%
Cc1ccc(CNCc2ccccc2Cl)s1 | inactive: 16.9%
CCCCNC(=O)c1ccc2c(=O)n(Cc3ccc(OC)cc3)c(=O)[nH]c2c1 | inactive: -5.75%
CCc1cccc(C)c1NC(=O)Cn1nc(C)n2cccc2c1=O | inactive: -19.8%
COC(=O)c1cc2oc(C)cc2n1CC(=O)Nc1ccc(C(C)C)cc1 | inactive: -30.9%
N#Cc1c(C(F)(F)F)cc(-c2cccs2)nc1SCc1ccc(F)cc1 | inactive: -3.52%
CCCCOC(=O)c1ccc(N)cc1 | inactive: -6.18%
CCOC(=O)C(C)Sc1ccc2nnc(CCNS(=O)(=O)c3ccc(C)cc3)n2n1 (configuration not stated) | inactive: -8.17%
CC1=C(C(=O)NCc2cccc(F)c2)C2(CCCCC2)OC1=O | inactive: 8.62%
CC1Cc2ccccc2N1C(=O)CSc1nc2ccc(NC(=O)COc3ccccc3)cc2s1 (configuration not stated) | inactive: 5.9%
Cc1ccccc1CSc1cn(CC(=O)N2CCCCC2)c2ccccc12 | inactive: -26.7%
CCOC(=O)c1c(C)oc2nc(C)nc(NCC3CCN(Cc4ccc(C)cc4)CC3)c12 | inactive: -9.94%
O=C(Nc1cccc(C(F)(F)F)c1)c1cnn(-c2cccc(F)c2)c1C1CCNCC1 | inactive: -8.37%
CC(C)(C)c1ccc(C(=O)NCCc2csc(-c3ccc(Cl)cc3)n2)cc1 | inactive: -12.4%
